According to the antibiotic and cytotoxicity screens of Wong et al. (2023):
Some of the results follow.

Experiments:
[1] = tested on: HSkMC (human skeletal muscle cells); assay: cytotoxicity call (relative viability < 0.9); conditions: 10 µM
[2] = tested on: HepG2; assay: cytotoxicity call (relative viability < 0.9); conditions: 10 µM
[3] = tested on: S. aureus RN4220; assay: growth inhibition call (relative growth <= 0.2); conditions: 50 µM

`C[C@H](CO)N1C[C@H](C)[C@@H](CN(C)S(=O)(=O)c2cccs2)OCCCC[C@H](C)Oc2ccc(NC(=O)Nc3ccc(F)cc3)cc2C1=O` was tested, and the cytotoxicity call [1] was “inactive”, the cytotoxicity call [2] was “inactive” and the growth inhibition call [3] was “inactive”.

For `COc1ccc(NC(=O)N(C)C[C@H]2Oc3ccc(NC(=O)CCN4CCOCC4)cc3C(=O)N([C@H](C)CO)C[C@H]2C)cc1`, the cytotoxicity call [1] was “inactive”, the cytotoxicity call [2] was “inactive” and the growth inhibition call [3] was “inactive”.

With `C[C@@H]1CN([C@@H](C)CO)C(=O)c2c(c3ccccc3n2C)-c2ccccc2CO[C@@H]1CN(C)Cc1ccc(C(F)(F)F)cc1` the cytotoxicity call [1] was “inactive”, the cytotoxicity call [2] was “inactive” and the growth inhibition call [3] was “inactive”.

With `COc1cccc(NC(=O)N(C)C[C@@H]2Oc3ncc(Br)cc3C(=O)N([C@@H](C)CO)C[C@H]2C)c1` the cytotoxicity call [1] was “inactive”, the cytotoxicity call [2] was “inactive” and the growth inhibition call [3] was “inactive”.

`CCNC(=O)C[C@@H]1CC[C@@H]2[C@H](COC[C@@H](O)CN2C(=O)Nc2c(C)noc2C)O1` was tested, and the cytotoxicity call [1] was “inactive”, the cytotoxicity call [2] was “inactive” and the growth inhibition call [3] was “inactive”.

In the case of `O=C(C[C@H]1CC[C@@H]2[C@H](COC[C@@H](O)CN2S(=O)(=O)c2ccc(F)cc2)O1)N[C@H]1CCN(Cc2ccccc2)C1`, the cytotoxicity call [1] was “inactive”, the cytotoxicity call [2] was “inactive” and the growth inhibition call [3] was “inactive”.

In the case of `Cc1ccc(S(=O)(=O)N2C[C@@H](O)COC[C@H]3O[C@H](CC(=O)NCc4ccc(C)c(C)c4)CC[C@@H]32)cc1`, the cytotoxicity call [1] was “inactive”, the cytotoxicity call [2] was “inactive” and the growth inhibition call [3] was “inactive”.

For `COc1ccccc1S(=O)(=O)N(C)C[C@@H]1Oc2cc(C#CCC(C)C)ccc2S(=O)(=O)N([C@H](C)CO)C[C@@H]1C`, the cytotoxicity call [1] was “inactive”, the cytotoxicity call [2] was “active” and the growth inhibition call [3] was “inactive”.

`C[C@@H]1CCCCO[C@H](CN(C)S(=O)(=O)c2ccc(Cl)cc2)[C@@H](C)CN([C@@H](C)CO)C(=O)c2cc(NC(=O)c3ccncc3)ccc2O1` was tested, and the cytotoxicity call [1] was “inactive”, the cytotoxicity call [2] was “active” and the growth inhibition call [3] was “inactive”.

In the case of `CCS(=O)(=O)Nc1ccc2c(c1)C(=O)N(C)[C@H]1CC[C@@H](CC(=O)N3CCN(C)CC3)O[C@H]1CO2`, the cytotoxicity call [1] was “inactive”, the cytotoxicity call [2] was “inactive” and the growth inhibition call [3] was “inactive”.

In the case of `COc1cccc(NC(=O)N(C)C[C@H]2OCc3ccccc3-c3c(n(C)c4ccccc34)C(=O)N([C@@H](C)CO)C[C@@H]2C)c1`, the cytotoxicity call [1] was “inactive”, the cytotoxicity call [2] was “inactive” and the growth inhibition call [3] was “inactive”.

In the case of `C[C@@H]1CCCCO[C@@H](CN(C)C(=O)Nc2ccc(F)cc2)[C@H](C)CN([C@H](C)CO)C(=O)c2cc(NC(=O)Cc3ccccc3)ccc2O1`, the cytotoxicity call [1] was “inactive”, the cytotoxicity call [2] was “inactive” and the growth inhibition call [3] was “inactive”.

In the case of `C[C@H](CO)N1C[C@H](C)[C@@H](CN(C)Cc2ccc(F)cc2)Oc2cc(Br)ccc2S1(=O)=O`, the cytotoxicity call [1] was “inactive”, the cytotoxicity call [2] was “inactive” and the growth inhibition call [3] was “inactive”.

With `Cc1cc2nc3c(=O)[nH]c(=O)nc-3n(CC(O)C(O)C(O)COP(=O)([O-])O)c2cc1C.[Na+]` (stereo unspecified) the cytotoxicity call [1] was “inactive”, the cytotoxicity call [2] was “active” and the growth inhibition call [3] was “inactive”.

For `COc1cc(OC)cc(-c2ccc(-c3ccc([C@H]4CC(=O)C[C@@H](c5ccccc5)C45C(=O)OC(C)(C)OC5=O)cc3)cc2OC)c1`, the cytotoxicity call [1] was “inactive”, the cytotoxicity call [2] was “inactive” and the growth inhibition call [3] was “inactive”.

In the case of `COc1ccc(NC(=O)N(C)C[C@@H]2Oc3c(NC(=O)c4ccc(-c5nccs5)cc4)cccc3C(=O)N([C@@H](C)CO)C[C@@H]2C)cc1`, the cytotoxicity call [1] was “inactive”, the cytotoxicity call [2] was “inactive” and the growth inhibition call [3] was “inactive”.

`O=C(C[C@H]1C[C@@H]2c3cc(NC(=O)Nc4ccc(C(F)(F)F)cc4)ccc3O[C@@H]2[C@H](CO)O1)NC1CCCCC1` was tested, and the cytotoxicity call [1] was “inactive”, the cytotoxicity call [2] was “inactive” and the growth inhibition call [3] was “inactive”.

In the case of `COc1ccccc1CNC(=O)C[C@@H]1CC[C@@H]2[C@H](COC[C@@H](O)CN2C(=O)Nc2ccc(F)cc2)O1`, the cytotoxicity call [1] was “inactive”, the cytotoxicity call [2] was “inactive” and the growth inhibition call [3] was “inactive”.

`CCCC(=O)Nc1ccc2c(c1)C(=O)N(C)C[C@H](OC)[C@H](C)CN(Cc1ccc(-c3ccccn3)cc1)[C@H](C)CO2` was tested, and the cytotoxicity call [1] was “inactive”, the cytotoxicity call [2] was “inactive” and the growth inhibition call [3] was “inactive”.

For `C[C@H](CO)N1C[C@H](C)[C@H](CN(C)CC2CCCCC2)OCCCC[C@H](C)Oc2ccc(NC(=O)Nc3ccc(C(F)(F)F)cc3)cc2C1=O`, the cytotoxicity call [1] was “active”, the cytotoxicity call [2] was “active” and the growth inhibition call [3] was “inactive”.

`COc1ccc(S(=O)(=O)N(C)C[C@@H]2Oc3ncc(C#Cc4ccc(F)cc4)cc3C(=O)N([C@H](C)CO)C[C@@H]2C)cc1` was tested, and the cytotoxicity call [1] was “inactive”, the cytotoxicity call [2] was “inactive” and the growth inhibition call [3] was “inactive”.

`CCCN(C)C[C@H]1OCCCC[C@H](C)Oc2ccc(NS(=O)(=O)c3ccc(Cl)cc3)cc2C(=O)N([C@@H](C)CO)C[C@H]1C` was tested, and the cytotoxicity call [1] was “inactive”, the cytotoxicity call [2] was “inactive” and the growth inhibition call [3] was “inactive”.

With `C[C@@H]1CN([C@H](C)CO)C(=O)Cc2cc(NC(=O)CCN3CCOCC3)ccc2O[C@H]1CN(C)C(=O)Nc1ccccc1` the cytotoxicity call [1] was “inactive”, the cytotoxicity call [2] was “inactive” and the growth inhibition call [3] was “inactive”.

For `COc1ccc(CN(C)C[C@H]2OCCCC[C@@H](C)Oc3ccc(NC(=O)Nc4ccc(OC)cc4)cc3C(=O)N([C@@H](C)CO)C[C@H]2C)cc1`, the cytotoxicity call [1] was “inactive”, the cytotoxicity call [2] was “active” and the growth inhibition call [3] was “inactive”.

For `C[C@@H]1CN([C@H](C)CO)C(=O)c2cccc(NS(=O)(=O)c3cn(C)cn3)c2O[C@H]1CN(C)S(=O)(=O)c1ccc(Cl)cc1`, the cytotoxicity call [1] was “inactive”, the cytotoxicity call [2] was “inactive” and the growth inhibition call [3] was “inactive”.

In the case of `CC(C)CC(NC(=O)C(C)NC(=O)CNC(=O)C(NC=O)C(C)C)C(=O)NC(C)C(=O)NC(C(=O)NC(C(=O)NC(C(=O)NC(Cc1c[nH]c2ccccc12)C(=O)NC(CC(C)C)C(=O)NC(Cc1c[nH]c2ccccc12)C(=O)NC(CC(C)C)C(=O)NC(Cc1c[nH]c2ccccc12)C(=O)NC(CC(C)C)C(=O)NC(Cc1c[nH]c2ccccc12)C(=O)NCCO)C(C)C)C(C)C)C(C)C` (stereo unspecified) [GRAMICIDIN (gramicidin A shown)], the growth inhibition call [3] was “inactive”.

`Cc1noc(C)c1NC(=O)N(C)C[C@H]1OCCCC[C@@H](C)Oc2ccc(NS(=O)(=O)c3ccc(Cl)cc3)cc2C(=O)N([C@@H](C)CO)C[C@H]1C` was tested, and the cytotoxicity call [1] was “inactive”, the cytotoxicity call [2] was “inactive” and the growth inhibition call [3] was “inactive”.

With `C[C@H](CCC(=O)O)[C@H]1CC[C@H]2[C@@H]3CC=C4C[C@@H](O)CC[C@]4(C)[C@H]3CC[C@]12C` [3beta-HYDROXYCHOL-5-ENIC ACID] the growth inhibition call [3] was “inactive”.

`COc1c(O)cc2oc3cc(O)c(CC=C(C)C)c(O)c3c(=O)c2c1CC=C(C)C` [alpha-MANGOSTIN] was tested, and the growth inhibition call [3] was “inactive”.
